The campaign covered roughly 310,000 compounds. About 2,200 (0.71%) showed an effect of 50% or more. The effect is printed as a negative number. Some of the results follow.

The target of this test is human ether-à-go-go-related gene (hERG) potassium channel (human, UniProt Q12809). The experiment in a line: primary screen, population patch clamp on CHO cells stably expressing hERG.
human ether-à-go-go-related gene (hERG) potassium channel, sequence (Q12809 whole entry, looked up): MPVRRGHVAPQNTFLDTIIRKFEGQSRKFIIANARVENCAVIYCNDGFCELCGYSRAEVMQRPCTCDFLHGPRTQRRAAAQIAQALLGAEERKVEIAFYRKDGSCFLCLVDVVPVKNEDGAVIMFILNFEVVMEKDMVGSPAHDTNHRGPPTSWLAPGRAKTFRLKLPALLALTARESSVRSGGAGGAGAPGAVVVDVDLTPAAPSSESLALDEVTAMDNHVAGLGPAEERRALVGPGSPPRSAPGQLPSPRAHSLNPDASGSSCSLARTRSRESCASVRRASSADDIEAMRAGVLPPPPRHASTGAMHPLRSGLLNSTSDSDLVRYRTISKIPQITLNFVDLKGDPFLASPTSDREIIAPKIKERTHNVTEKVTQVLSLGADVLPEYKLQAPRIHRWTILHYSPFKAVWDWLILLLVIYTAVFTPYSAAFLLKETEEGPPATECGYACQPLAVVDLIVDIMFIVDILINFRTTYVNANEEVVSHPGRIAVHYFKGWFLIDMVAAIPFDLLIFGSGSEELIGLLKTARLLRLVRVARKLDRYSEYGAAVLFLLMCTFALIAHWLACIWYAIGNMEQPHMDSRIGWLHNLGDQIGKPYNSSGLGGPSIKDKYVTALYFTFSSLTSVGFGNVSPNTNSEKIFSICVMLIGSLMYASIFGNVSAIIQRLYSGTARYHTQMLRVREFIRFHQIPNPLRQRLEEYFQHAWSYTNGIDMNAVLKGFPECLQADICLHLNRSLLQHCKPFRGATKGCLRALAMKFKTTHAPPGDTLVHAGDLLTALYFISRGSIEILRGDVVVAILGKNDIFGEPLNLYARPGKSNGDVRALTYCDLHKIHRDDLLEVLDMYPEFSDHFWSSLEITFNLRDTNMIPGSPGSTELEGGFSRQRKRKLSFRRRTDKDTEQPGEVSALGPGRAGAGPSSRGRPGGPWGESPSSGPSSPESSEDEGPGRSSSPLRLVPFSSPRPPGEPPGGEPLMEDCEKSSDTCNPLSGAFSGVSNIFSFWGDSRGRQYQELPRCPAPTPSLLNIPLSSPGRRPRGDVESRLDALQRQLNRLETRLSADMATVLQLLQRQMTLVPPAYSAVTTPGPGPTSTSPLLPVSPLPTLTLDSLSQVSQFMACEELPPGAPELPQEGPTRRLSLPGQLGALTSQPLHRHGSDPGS
On to `O=C(CN1CCN(Cc2ccccc2Cl)C1=O)NC1CCCCCCC1`, for which the “hERG current change (%, negative = inhibition) at 1uM” value is 9.62%.

Regarding `CS(=O)(=O)N1CCN(c2ccc(NC(=O)c3ccccc3)cc2)CC1`, the “hERG current change (%, negative = inhibition) at 1uM” value is listed as -16.3%.

Consider `O=S(=O)(c1ccc(Oc2ccc(S(=O)(=O)N3CCOCC3)cc2)cc1)N1CCOCC1`, for which the “hERG current change (%, negative = inhibition) at 1uM” value amounted to 13.7%.

With `Cl.Cn1c(=O)c2c(ncn2CCCC(=N)N2CCOCC2)n(C)c1=O`, the “hERG current change (%, negative = inhibition) at 1uM” value was 15.4%.

For the molecule `Cn1c(C(=O)N[C@@H](Cc2ccccc2)C(=O)O)cc2cc(F)ccc21`, the “hERG current change (%, negative = inhibition) at 1uM” value was 14.7%.

For `O=c1cc(N2CCc3ccccc3C2)[nH]c(=O)n1-c1ccccc1Cl`, the “hERG current change (%, negative = inhibition) at 1uM” value was determined as 17.6%.

In the case of `CCn1c(CCNC(=O)c2cccs2)nnc1SCC(=O)Nc1cccc(Cl)c1`, the “hERG current change (%, negative = inhibition) at 1uM” value was -21.1%.

Consider `COc1ccc(CCNC(=O)c2cccc(NC(=O)CC3SC(N4CCCCC4)=NC3=O)c2)cc1OC` (stereo not drawn), for which the “hERG current change (%, negative = inhibition) at 1uM” value came to 7.29%.

For `CCC(=O)N/C(=N/c1nc(C)cc(C)n1)Nc1ccc(OC)cc1`, the “hERG current change (%, negative = inhibition) at 1uM” value turned out to be 10.1%.

`COc1ccc(C(=O)N2CCN(C)C(=O)[C@@H]2C)cc1OC1CCN(C(C)=O)CC1`: the “hERG current change (%, negative = inhibition) at 1uM” value was found to be 14.6%.

For the molecule `Cc1cc(NCCCCO)n2c(nc3ccccc32)c1C#N`, the “hERG current change (%, negative = inhibition) at 1uM” value is reported as -5.67%.

Regarding `CC(=O)c1cc(O)c2ccccc2c1O`, the “hERG current change (%, negative = inhibition) at 1uM” value was determined as 12.2%.

Take `CCCN1CN(Cc2ccccc2)CNC1=S`: the “hERG current change (%, negative = inhibition) at 1uM” value is given as 10.1%.

In the case of `CC(C)(C)c1cc(C(=S)N2CCN(CCO)CC2)cc(C(C)(C)C)c1O`, the “hERG current change (%, negative = inhibition) at 1uM” value is listed as -3.92%.

On to `CCCNC(=O)COC(=O)c1ccc(OCC(=O)Nc2ccccc2OC)c(OC)c1`, for which the “hERG current change (%, negative = inhibition) at 1uM” value came out at 14.4%.

With `O=C(O)c1ccc2c(=O)n3c(nc2c1)/C(=C/c1cccc(Cl)c1Cl)CC3`, the “hERG current change (%, negative = inhibition) at 1uM” value came out at 13.8%.

In the case of `COc1ccc(C2(c3ccc(OC)cc3)NC(=O)N(CC(=O)Nc3ccccc3)C2=O)cc1`, the “hERG current change (%, negative = inhibition) at 1uM” value is listed as 2.32%.

Regarding `Cc1ccc(Nc2ncnc3sc(C)c(C)c23)cc1`, the “hERG current change (%, negative = inhibition) at 1uM” value was found to be 13.1%.

Turning to `O=C(NC1CCCC1)c1noc2c1CCCCC2`, the “hERG current change (%, negative = inhibition) at 1uM” value came to 13.8%.

Turning to `CCc1ccccc1NC1=NCC(=O)N1Cc1ccc(OC)cc1.Cl`, the “hERG current change (%, negative = inhibition) at 1uM” value was 6.01%.

With `COc1ccccc1NC(=O)C(C)NS(=O)(=O)c1ccccc1` (stereo not drawn), the “hERG current change (%, negative = inhibition) at 1uM” value came out at 0.28%.

With `Cc1noc(C)c1C(=O)Nc1ccccc1C(=O)NCCc1ccccc1`, the “hERG current change (%, negative = inhibition) at 1uM” value turned out to be 8.16%.

For `O=C(Nc1ccc2c(c1)OCO2)c1ccc(COc2ccc3c(c2)CCC3)o1`, the “hERG current change (%, negative = inhibition) at 1uM” value came to 7.02%.

As to `C/C(=N/NC(=O)c1cnccn1)c1cccs1`, the “hERG current change (%, negative = inhibition) at 1uM” value turned out to be 7.15%.

On to `O=C(CN1CCN(c2ccccc2)CC1)N1CCc2ccccc21`, for which the “hERG current change (%, negative = inhibition) at 1uM” value was determined as 13.4%.

For `CC(=O)c1c(C)[nH]c(C(=O)OCC(=O)N2c3ccccc3NC(=O)C2(C)C)c1C`, the “hERG current change (%, negative = inhibition) at 1uM” value was found to be 4.1%.

On to `C/C(=N\O)c1cc(Cl)cc(Cl)c1O`, for which the “hERG current change (%, negative = inhibition) at 1uM” value came to 11.8%.

Turning to `Cc1ccc(C)c(OCCC(=O)OCC(=O)c2ccc3c(c2)NC(=O)CO3)c1`, the “hERG current change (%, negative = inhibition) at 1uM” value worked out at 10.5%.

On to `O=C(COc1ccc(Cl)cc1)Nc1nc(-c2ccc(S(=O)(=O)N3CCOCC3)cc2)cs1`, for which the “hERG current change (%, negative = inhibition) at 1uM” value is on record as 10.4%.

Regarding `CCOC(=O)c1ccc(N/C(=N\S(=O)(=O)c2ccc(F)cc2F)c2ccccc2)cc1`, the “hERG current change (%, negative = inhibition) at 1uM” value was determined as 6.54%.

On to `Nc1c(Cl)cc(Cl)cc1C(=O)OCC(=O)NC1CC1`, for which the “hERG current change (%, negative = inhibition) at 1uM” value was -0.817%.

For `Cc1cc(=O)oc2c3c(cc(OCC(=O)NC(Cc4ccc(Cl)cc4)C(=O)O)c12)OC(C)(C)CC3` (stereo not drawn), the “hERG current change (%, negative = inhibition) at 1uM” value is reported as 12.2%.

With `COc1ccc(/C=N\Nc2ccccc2[N+](=O)[O-])c(C(=O)O)c1OC`, the “hERG current change (%, negative = inhibition) at 1uM” value is listed as -3.48%.

With `CCN(CC)C(C(=O)NC1CCCCC1)c1ccc(C)cc1` (stereo not drawn), the “hERG current change (%, negative = inhibition) at 1uM” value was found to be 3.7%.

In the case of `COc1ccc(S(=O)(=O)Cc2ccc(C(=O)N3CCN(c4cccc(C)c4C)CC3)o2)cc1`, the “hERG current change (%, negative = inhibition) at 1uM” value was 1.22%.

Take `COCCNC(=S)N(CCO)Cc1cc2cc3c(cc2[nH]c1=O)OCCO3`: the “hERG current change (%, negative = inhibition) at 1uM” value came out at 7.15%.

As to `CCOc1ccc(NC(=O)C2CCCN2C(=O)OCc2ccccc2)cc1` (stereo not drawn), the “hERG current change (%, negative = inhibition) at 1uM” value worked out at 0.626%.

For the molecule `CCOC(=O)c1ccc(-n2c(C)ccc2C)cc1`, the “hERG current change (%, negative = inhibition) at 1uM” value came out at 9.07%.

For the molecule `O=C(O)/C=C/c1cn(Cc2ccccc2)nc1-c1ccc(Cl)cc1`, the “hERG current change (%, negative = inhibition) at 1uM” value turned out to be 13%.

With `O=C(NCCN1CCOCC1)C(=O)NCC1OCCN1S(=O)(=O)c1ccc(F)cc1` (stereo not drawn), the “hERG current change (%, negative = inhibition) at 1uM” value was determined as 2.25%.

For `COc1ccc(S(=O)(=O)Nc2ccccc2SC)cc1C`, the “hERG current change (%, negative = inhibition) at 1uM” value was found to be 1.39%.

Regarding `CC(C(=O)Nc1cc(C(F)(F)F)ccc1N1CCOCC1)N1C(=O)C2CC=CCC2C1=O` (stereo not drawn), the “hERG current change (%, negative = inhibition) at 1uM” value is listed as 7.8%.

As for `CC(C)c1cc(C(=O)OCC(=O)NC(=O)NCc2ccco2)c(O)c(C(C)C)c1`, the “hERG current change (%, negative = inhibition) at 1uM” value is 11%.

For the molecule `Cc1nccn1CCCNC(=O)CC1C(=O)NCCN1Cc1ccccc1C(F)(F)F` (stereo not drawn), the “hERG current change (%, negative = inhibition) at 1uM” value was determined as 9.52%.

For the molecule `O=[N+]([O-])c1ccc(SCc2ccncc2)nc1`, the “hERG current change (%, negative = inhibition) at 1uM” value is 24.9%.

Turning to `CCO.N#CC1=C(N)Oc2c(oc(CO)cc2=O)C1c1ccccc1[N+](=O)[O-]` (stereo not drawn), the “hERG current change (%, negative = inhibition) at 1uM” value turned out to be 0.136%.

For `CN(c1ccccc1)S(=O)(=O)c1nnc(NC(=O)COc2ccccc2)s1`, the “hERG current change (%, negative = inhibition) at 1uM” value is given as 15.5%.

Turning to `COCCn1c(SCC(=O)c2ccc3c(c2)OCCO3)nnc1C(C)C`, the “hERG current change (%, negative = inhibition) at 1uM” value is on record as 4.98%.

In the case of `O=C(CN1CCC(NC(=O)Cc2ccccc2)CC1)Nc1ccccc1Br`, the “hERG current change (%, negative = inhibition) at 1uM” value came to 2.03%.

`CCOC(=O)C1(CCCc2ccccc2)CCN(C2CCCC2)CC1`: the “hERG current change (%, negative = inhibition) at 1uM” value is listed as -66.1%.

As to `Cc1cc(C)c(NS(=O)(=O)c2ccc(Cl)c(C(=O)O)c2)c(C)c1`, the “hERG current change (%, negative = inhibition) at 1uM” value came to 7.97%.

On to `Cc1cc(C)nc(SCC(=O)NNC(=O)c2cccs2)n1`, for which the “hERG current change (%, negative = inhibition) at 1uM” value is on record as 2.52%.

For `CCNC(=S)NCc1ccco1`, the “hERG current change (%, negative = inhibition) at 1uM” value is reported as 6.83%.

With `CCOC(=O)CSC1=C(C#N)C(c2ccccc2C)C2=C(CCCC2=O)N1` (stereo not drawn), the “hERG current change (%, negative = inhibition) at 1uM” value is 4.84%.

Turning to `OCCC1CN(Cc2ccc3c(c2)CCO3)CCN1C1CCCC1` (stereo not drawn), the “hERG current change (%, negative = inhibition) at 1uM” value amounted to 2.48%.

On to `Fc1ccc(-c2csc(Nc3ccccn3)n2)cc1`, for which the “hERG current change (%, negative = inhibition) at 1uM” value is 14%.

For the molecule `Cl.OCCN1CCN(CC(O)COCCOc2ccc(Br)cc2)CC1` (stereo not drawn), the “hERG current change (%, negative = inhibition) at 1uM” value is given as -8.42%.

Source of the values: PMC4336329 (PLoS ONE, 2015).
